Results from PubChem BioAssay (NCI).
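Briefly, cells in 96-well plates were exposed to five compound concentrations for 48 h, and endpoints were estimated by linear interpolation. Here, GI50 denotes the concentration required for 50% inhibition of growth. TGI: total growth inhibition.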 The source made the active and inactive calls. Rule as the data show it: active = GI50 below about 0.43 µM; inactive = the rest. Peptide text beside a SMILES is read from it.

System: NCI-H322M lung
Test: NCI-60 cell line screen, 48 h

SMILES | TGI [µM] | GI50 [µM] | outcome
OCCCC(O)(c1ccccc1)c1ccccc1 | > 100 | – | –
O=C1C=CC(O)(C#CCO)C=C1 | 46.1 | – | –
Nc1n[nH]c2cccc(C#Cc3cccc(NC(=O)c4ccc(N5CCOCC5)c(C(F)(F)F)c4)c3)c12 | 6.36 | 1.76 | –
C=CC(=O)N1CCN(CCCn2c(=O)c(-c3c(Cl)c(OC)cc(OC)c3Cl)cc3cnc(NC)nc32)CC1 | 15.3 | 2.93 | –
O=C(Cc1n[nH]c(=O)c2ccccc12)OCc1c(Cl)cccc1Cl | > 100 | > 100 | –
CSc1nc(-c2cc3ccccc3o2)cc(-c2ccc(Cl)cc2)c1C#N | > 100 | > 65.3 | –
Cc1cc(OCC(=O)O)c(Cl)cc1Cl | > 100 | – | –
COC(c1ccccc1)C(c1ccccc1)N1CCOCC1 (configuration not stated) | > 100 | – | –
COC(=O)C(Cc1c[nH]c2ccccc12)NP(=O)(O)OCC1OC(n2ccc(N)nc2=O)C(O)C1O (configuration not stated) | > 100 | – | –
c1cc[n+](C2c3ccccc3C([n+]3ccccc3)c3ccccc32)cc1 (configuration not stated) | > 100 | 21 | –
Cc1ccc(-c2cc(-c3ccccc3)nc(N)n2)c(O)c1 | > 100 | – | –
O=C(C[n+]1cccc2cc(Cl)ccc21)c1ccc2c(c1)CCCC2 | 11.7 | 2.82 | –
Cc1ccc(-n2c(O)c(C=N)c(=O)n(-c3ccc(C)cc3)c2=O)cc1 | > 100 | – | –
CN=c1ssc(/N=C(\SC)N(C)C)[n+]1C | > 100 | – | –
COc1ccc(-c2cn[nH]c2-c2cc(OC)c(OC)c(OC)c2)cc1OCc1ccccc1 | 44.9 | 4.83 | –
COC(=O)[C@]12CC[C@H]3CN(C(=O)OCc4ccccc4)[C@H]([C@H]31)[C@H](c1ccccc1)N2 | > 100 | – | –
COc1ccc2c(c1)n([O-])c1cc(C#N)ccc1[n+]2=O | 0.899 | – | –
COc1ccc2c(c1)/C(=N/OC(C)=O)c1c-2c(Nc2cccc(/C(C)=N/OC(C)=O)c2)nc2ccccc12 | > 100 | 38.2 | –
N#Cc1c(N)c2c(c(-c3ccccc3)c1-c1ccccc1)C(=O)N(N)C2=O | > 100 | – | –
NC(N)=NN=C(c1ccccc1)c1ccccc1 | > 100 | 5.92 | –
ClCc1ccccc1Cn1cnc2c(Cl)nc(Cl)nc21 | 3.17 | 1.46 | –
COc1cc(C(c2c(O)c3ccccc3oc2=O)c2c(O)c3ccccc3oc2=O)ccc1O | > 100 | – | –
CC[N+](CC)=c1cc2oc3cc(N(C)C)ccc3nc-2cc1C | 4.41 | 1.16 | –
Cc1ccc(C(=O)N/N=C(\N=Nc2cccc([N+](=O)[O-])c2)c2ccc(N(C)C)cc2)cc1 | > 100 | – | –

SMILES | TGI [µM] | GI50 [µM] | outcome
COc1ccc2cc(C#Cc3ccc(-n4c(/C=C/c5cc(OC)c(OC)c(OC)c5)nc5ccccc5c4=O)c(C)c3)ccc2c1 | > 100 | > 100 | –
Cc1cn(CCCC2=NCCCN2)c(=O)[nH]c1=O | > 100 | – | –
Oc1c(Br)cc(Br)c2ccc(Cn3cc(-c4ccc(C(F)(F)F)cc4)nn3)nc12 | 27.5 | 14.4 | –
NS(=O)(=O)c1ccc(NC(=S)/N=C/c2c(O)c3ccccc3oc2=O)cc1 | > 100 | – | –
O=C(O)c1ccc(C(=O)Nc2cccc3ccccc23)c(C(=O)O)c1 | > 100 | – | –
Cc1cc(C(=O)NCCN(C)C)c2nc3ccccc3cc2c1 | 6.87 | – | –
COc1cc2c(c(O)c1OC)C(=O)C1CCC(=O)N1C2c1cccc2ccccc12 (configuration not stated) | > 100 | – | –
O=c1[nH]c(=O)n(COCCOCc2ccccc2)cc1Nc1ccccc1 | > 100 | – | –
Cc1cc2c(c(S(=O)(=O)c3ccc(Cl)cc3[N+](=O)[O-])c1)NCCC2 | > 100 | – | –
O=C1Nc2ccccc2/C1=C\c1c(-c2ccccc2)nc2ccccn12 | 49.6 | 3.68 | –
COc1cccc(C2=C(c3cn(C)c4ccc(Cl)cc34)C(=O)NC2=O)c1 | > 22.2 | 9.41 | –
C[C@@H](NC(=O)CNC(=O)OC(C)(C)C)C(=O)N[C@@H](Cc1ccccc1)C(=O)OCc1ccccc1 (HELM PEPTIDE1{[CC(C)(C)OC(=O)[*:2]].G.[dA].F.[c1ccc(CO[*:1])cc1]}$$$$V2.0) | > 100 | – | –
C=C1CC(C)(COc2ccc3c(C)c(C)c(=O)oc3c2C)OC1=O (configuration not stated) | 22.6 | – | –
COc1cc(C(=O)O)ccc1OS(=O)(=O)O | > 100 | – | –
CC1(C)OCC(C2OC3OC(C)(C)OC3C2N)O1 (configuration not stated) | > 100 | – | –
CCCCCCCCCCc1c2nc(c(CCCCCCCCCC)c3ccc([nH]3)c(CCCCCCCCCC)c3ccc([nH]3)c(CCCCCCCCCC)c3nc1C=C3)C=C2 | > 100 | – | –
Cc1cc(Cl)nc(Nc2nc3ccccc3[nH]2)n1 | > 100 | – | –
C[C@H](C(=O)C12CC3CC(CC(C3)C1)C2)[C@H](O)c1ccccc1 | 82.4 | – | –
NC(N)=NCCC[C@H]1NC(=O)[C@@H](CCC(=O)O)NC(=O)[C@@H](CC(=O)O)NC(=O)[C@@H](CCC(=O)O)NC(=O)[C@H](Cc2c[nH]c3ccccc23)NC1=O (HELM PEPTIDE1{W.[dE].[dD].[dE].[dR]}$PEPTIDE1,PEPTIDE1,1:R1-5:R2$$$V2.0) | > 7.5 | – | –
CC(=O)OCC1OC(N2C(=O)NC(=O)C3C=C4CCCCC4=CC32)C(OC(C)=O)C1OC(C)=O (configuration not stated) | > 100 | – | –
NC(CCC(=O)Nc1ccc(O)cc1)C(=O)O (configuration not stated) | > 100 | – | –
CC1CC/C(=C\c2ccc(F)cc2)C2=C1C(c1ccc(F)cc1)n1c(s/c(=C/c3cccc(Br)c3)c1=O)=N2 (configuration not stated) | > 100 | – | –
COc1cc(C=C(c2ccc(N(C)C)cc2)c2ccc(N(C)C)cc2)c2ccccc2c1OC | > 100 | – | –
Clc1ccc(C(Cn2ccnc2)OCc2ccsc2Cl)c(Cl)c1 (configuration not stated) | 17.1 | 4.47 | –

SMILES | TGI [µM] | GI50 [µM] | outcome
COc1cc(Nc2ccnc(NCCNc3ccnc4cc(Cl)ccc34)n2)cc(OC)c1 | 5.71 | 1.89 | –
COC(=O)C1C(OS(=O)(=O)O)CCC2CN3CCc4c([nH]c5ccccc45)C3CC21 (configuration not stated) | > 100 | – | –
O=[N+]([O-])c1ccc2c(c1)c1nn2CCCCOc2nn(c3ccc([N+](=O)[O-])cc23)CCCCO1 | > 100 | – | –
N#CC1(Nc2ccc(Br)cc2)CCCC1 | > 100 | > 100 | –
OC1CCCN(C2(c3cccs3)CCCCC2)C1 (configuration not stated) | > 100 | – | –
CN(CCCNCc1ccccn1)Cc1ccccc1O | > 100 | – | –
O=C(CC(=O)n1nc(-c2ccccc2)c(N=Nc2ccccc2Cl)c1-c1ccccc1)Nc1ccc(Cl)cc1 | > 100 | – | –
S=C(S)NCCNC(=S)S.[Cu+2] | > 100 | > 100 | –
CCOC(=O)C1=C(C)NC(=O)NC1c1ccc(N(CCCl)CCCl)cc1Cl (configuration not stated) | 35.5 | – | –
O=C(Nc1ccc2[nH]c3ccccc3c2c1)c1ccccc1Cl | > 100 | 6.44 | –
CC1CCC2C(C)(C)CC3(C)CCC1C23O (configuration not stated) | 58.3 | – | –
O=C(/C=C/c1ccc(O)c(O)c1)OCCCOC(=O)/C=C/c1ccc(O)c(O)c1 | > 100 | – | –
COc1ccc(C(C)c2cc3c(cc2O)OCO3)cc1 (configuration not stated) | 54.3 | – | –
CCOC(=O)CC[C@H](NC(=O)c1[nH]cnc1/N=N/N(C)C)C(=O)OCC | > 100 | – | –
CC1(C)CC(C)(C)CC(O)(C2(O)CC(C)(C)CC(C)(C)C2)C1 | > 100 | – | –
C[C@]12CC[C@@H]3c4cc(Br)c(O)c(Br)c4CC[C@H]3[C@@H]1CC(Br)C2=O (some centres not stated) | 35.8 | – | –
O=C(c1ccco1)c1nc2ccc(Cl)cc2[n+]([O-])c1C(F)(F)F | > 100 | > 100 | –
NC(N)=NS(=O)(=O)c1ccc(NC(=O)c2cccc3c(=O)c4ccccc4[nH]c23)cc1 | > 100 | – | –
COc1ccc(/C=C2/SC(c3ccc(Cl)cc3)N(NC(=O)CCCCCCCCC(=O)NN3C(=O)/C(=C\c4ccc(OC)c(OC)c4)SC3c3ccc(Cl)cc3)C2=O)cc1OC (configuration not stated) | > 100 | – | –
O=C1/C(=C\c2cccc(Oc3ccccc3)c2)SC(c2ccccc2)N1c1ccccc1Cl (configuration not stated) | > 100 | – | –
CCOc1ccc([Se][Se]c2ccc(OCC)cc2)cc1 | > 100 | – | –
CN[C@@H](C)C(=O)N[C@H]1CCS[C@H]2CC(C)(C)[C@@H](C(=O)N[C@H]3c4ccccc4C[C@H]3OCC#CC#CCO[C@@H]3Cc4ccccc4[C@@H]3NC(=O)[C@H]3N4C(=O)[C@@H](NC(=O)[C@H](C)NC)CCS[C@H]4CC3(C)C)N2C1=O | > 50 | > 50 | –
O=C(C1OC1c1ccc(F)cc1)C12CC3CC(CC(C3)C1)C2 (configuration not stated) | 49.3 | – | –
O=C(Cc1cc[n+]([O-])cc1)C(=O)Nc1cc(Cl)c(Cl)cc1Cl | > 100 | – | –

SMILES | TGI [µM] | GI50 [µM] | outcome
Cn1c(=O)c2c(nc3n(Cc4ccccc4)c(=O)c(Br)cn23)n(C)c1=O | > 100 | – | –
COc1ccc(/C(C)=C(\c2ccc(Cl)cc2)c2ccc(OCCN3CCCCC3)cc2)cc1 | 12.3 | 4.94 | –
COc1nc(N)c(N=O)c(OCc2ccccc2)n1 | > 10 | – | –
CCc1n[nH]c(=O)n1/N=C/c1ccc(/C=N/n2c(CC)n[nH]c2=O)cc1 | > 100 | – | –
Clc1ccc(-c2nnc3c4nnc(-c5ccc(Cl)cc5Cl)n4c4ccccc4n23)c(Cl)c1 | > 100 | – | –
C=CC(=O)C#CC#CC/C=C\CCCCCCC | > 20.6 | – | inactive
Cc1nc2ccccc2nc1NNc1ccccc1 | > 100 | – | –
C[C@H]1[C@H](N2CCCC2)O[Si](C(C)(C)C)(C(C)(C)C)[C@@H]1C | > 100 | – | –
O=C1C[C@@H](Sc2ccccc2)C2(OCCO2)C2ON3CCCC[C@H]3[C@H]12 (some centres not stated) | 27.3 | – | –
Cc1ccccc1OC(C)C(=O)NN1C(=O)CC(=O)NC1=S (configuration not stated) | > 100 | – | –
CCC[CH2][Sn]1([CH2]CCC)[O]CC(CN2CCCCC2)[O]1 (configuration not stated) | 2.64 | 1.33 | –
COc1cc(-c2nccn2-c2ccc3ccccc3c2)cc(OC)c1OC | 57.6 | 0.347 | –
O=S1c2ccccc2N=C(c2cccc3ccccc23)CC1c1cccc2ccccc12 (configuration not stated) | 32.4 | – | –
CCOC(=O)C(COS(C)(=O)=O)(COS(C)(=O)=O)C(=O)OCC | > 100 | – | –
CC(C)C(=O)OCN(C)c1nc(N(C)COC(=O)C(C)C)nc(N(C)COC(=O)C(C)C)n1 | > 100 | – | –
CC(C)(C)/C(O)=C\c1nc2ccc(C(F)(F)F)cc2[nH]c1=O | > 100 | – | –
O=c1[nH]cnc2c1sc(=S)n2-c1ccccc1 | > 100 | – | –
CN(C)CCCNc1ccnc2cccc([N+](=O)[O-])c12 | 46.5 | – | –
CCOC(=O)C1OC(=O)CC1C1(C(=O)OCC)C=CC(=O)O1 (configuration not stated) | > 100 | – | –
Cc1cn(C2CC(OC3CCCCO3)C(CO)O2)c(=O)[nH]c1=O (configuration not stated) | > 100 | – | –
CCOC(=O)CCc1cccc2c1oc1c(CCNC(=O)OCC3c4ccccc4-c4ccccc43)cccc12 | 56.3 | – | –
O=C(Nc1ccc(Cl)cc1)c1cc2c(cc1Cl)SC(NNCCO)=NS2(=O)=O | > 100 | – | –
CCO/C(O)=C(/C(=N)N1CCOCC1)C(=O)Nc1ccc(Cl)cc1 | > 100 | – | –
O=C1/C(=C/c2ccco2)N=C(c2ccccc2)N1c1ccc(S(=O)(=O)Nc2nccs2)cc1 | > 100 | – | –
